Data as given in the supplement of paper PMC12067093, “Discovery and optimisation of a covalent ligand for TRIM25 and its application to targeted protein ubiquitination” (Chemical Science, 2025).
Targets with the largest changes are over-represented here; the source holds about 21,000 in all.

Each target was assayed with Cc1cc(ccc1-c1ccccc1)C(=O)N1CCCN(CC1)C(=O)CCl [compound 10] (assay: probe-labelled cysteine peptide fold change vs DMSO (competition) (log2 fold change); higher = less target engagement (more negative = stronger competition)). Conditions: 10 µM; THP-1; incubation time: 4 h.
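Further: competitive profiling in live THP-1 cells: cysteine peptides tagged with an iodoacetamide desthiobiotin (IA-DTB) probe, intensity after compound treatment relative to DMSO-treated cells.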

Sequence of UniProt O75387 (O75387 whole entry): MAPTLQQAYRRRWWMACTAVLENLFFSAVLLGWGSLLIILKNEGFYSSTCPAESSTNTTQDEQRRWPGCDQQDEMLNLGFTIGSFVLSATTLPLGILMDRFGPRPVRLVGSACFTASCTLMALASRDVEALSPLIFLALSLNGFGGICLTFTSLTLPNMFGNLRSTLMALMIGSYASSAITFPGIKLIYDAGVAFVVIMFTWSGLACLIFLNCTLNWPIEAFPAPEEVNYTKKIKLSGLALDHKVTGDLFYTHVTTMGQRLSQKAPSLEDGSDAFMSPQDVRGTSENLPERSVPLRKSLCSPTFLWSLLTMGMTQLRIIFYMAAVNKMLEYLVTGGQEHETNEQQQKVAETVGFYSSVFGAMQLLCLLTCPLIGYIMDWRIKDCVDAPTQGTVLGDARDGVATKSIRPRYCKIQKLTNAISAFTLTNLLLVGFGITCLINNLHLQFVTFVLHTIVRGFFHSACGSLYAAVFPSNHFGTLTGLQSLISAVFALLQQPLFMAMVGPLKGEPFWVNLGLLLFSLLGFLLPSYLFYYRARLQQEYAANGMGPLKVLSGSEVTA
Sequence of UniProt Q9UBV2 (Q9UBV2 whole entry, looked up): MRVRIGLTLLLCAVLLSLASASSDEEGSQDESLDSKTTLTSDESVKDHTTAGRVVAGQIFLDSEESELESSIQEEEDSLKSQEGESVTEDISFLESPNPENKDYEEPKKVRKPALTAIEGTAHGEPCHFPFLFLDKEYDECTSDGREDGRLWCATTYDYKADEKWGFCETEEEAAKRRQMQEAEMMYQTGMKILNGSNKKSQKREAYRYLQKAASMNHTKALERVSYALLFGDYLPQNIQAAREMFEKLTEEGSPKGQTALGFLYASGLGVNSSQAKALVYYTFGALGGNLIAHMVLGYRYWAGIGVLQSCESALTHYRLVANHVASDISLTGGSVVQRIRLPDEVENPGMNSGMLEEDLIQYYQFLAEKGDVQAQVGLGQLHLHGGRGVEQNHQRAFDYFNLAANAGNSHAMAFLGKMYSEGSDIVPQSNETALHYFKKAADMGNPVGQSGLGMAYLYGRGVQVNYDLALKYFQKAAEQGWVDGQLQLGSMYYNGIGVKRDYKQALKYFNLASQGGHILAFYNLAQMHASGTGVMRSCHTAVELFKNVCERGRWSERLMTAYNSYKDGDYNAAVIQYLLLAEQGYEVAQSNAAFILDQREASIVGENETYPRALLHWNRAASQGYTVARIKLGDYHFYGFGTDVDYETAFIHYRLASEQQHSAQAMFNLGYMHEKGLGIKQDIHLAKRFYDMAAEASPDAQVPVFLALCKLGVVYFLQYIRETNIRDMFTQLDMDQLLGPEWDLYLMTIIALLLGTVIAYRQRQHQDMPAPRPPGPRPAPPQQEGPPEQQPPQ
Sequence of UniProt Q7KZF4 (Q7KZF4 whole entry, looked up): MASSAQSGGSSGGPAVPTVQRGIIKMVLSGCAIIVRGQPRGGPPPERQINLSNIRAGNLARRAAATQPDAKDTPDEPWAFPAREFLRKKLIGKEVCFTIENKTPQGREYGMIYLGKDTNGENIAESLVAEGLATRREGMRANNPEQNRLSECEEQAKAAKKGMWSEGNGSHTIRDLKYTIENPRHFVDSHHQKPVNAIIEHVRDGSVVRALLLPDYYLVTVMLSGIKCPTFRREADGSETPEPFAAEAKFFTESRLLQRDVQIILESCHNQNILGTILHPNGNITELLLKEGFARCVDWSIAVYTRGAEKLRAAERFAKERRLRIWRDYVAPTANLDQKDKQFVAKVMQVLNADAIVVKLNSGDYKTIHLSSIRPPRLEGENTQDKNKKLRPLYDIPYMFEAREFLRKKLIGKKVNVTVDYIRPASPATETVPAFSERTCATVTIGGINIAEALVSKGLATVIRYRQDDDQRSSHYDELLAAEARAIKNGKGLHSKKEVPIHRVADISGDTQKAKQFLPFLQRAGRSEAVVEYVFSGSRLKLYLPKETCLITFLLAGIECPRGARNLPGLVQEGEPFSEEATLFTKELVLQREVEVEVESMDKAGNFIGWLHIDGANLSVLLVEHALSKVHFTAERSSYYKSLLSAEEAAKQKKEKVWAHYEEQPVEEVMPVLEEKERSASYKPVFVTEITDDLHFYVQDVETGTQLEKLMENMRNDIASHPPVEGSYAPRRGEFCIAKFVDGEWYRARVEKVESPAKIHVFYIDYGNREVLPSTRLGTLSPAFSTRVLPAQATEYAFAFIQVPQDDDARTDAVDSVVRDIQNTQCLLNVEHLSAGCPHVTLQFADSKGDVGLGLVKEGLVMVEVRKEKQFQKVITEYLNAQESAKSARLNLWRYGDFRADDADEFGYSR
Sequence of UniProt Q9NRM0 (Q9NRM0 whole entry): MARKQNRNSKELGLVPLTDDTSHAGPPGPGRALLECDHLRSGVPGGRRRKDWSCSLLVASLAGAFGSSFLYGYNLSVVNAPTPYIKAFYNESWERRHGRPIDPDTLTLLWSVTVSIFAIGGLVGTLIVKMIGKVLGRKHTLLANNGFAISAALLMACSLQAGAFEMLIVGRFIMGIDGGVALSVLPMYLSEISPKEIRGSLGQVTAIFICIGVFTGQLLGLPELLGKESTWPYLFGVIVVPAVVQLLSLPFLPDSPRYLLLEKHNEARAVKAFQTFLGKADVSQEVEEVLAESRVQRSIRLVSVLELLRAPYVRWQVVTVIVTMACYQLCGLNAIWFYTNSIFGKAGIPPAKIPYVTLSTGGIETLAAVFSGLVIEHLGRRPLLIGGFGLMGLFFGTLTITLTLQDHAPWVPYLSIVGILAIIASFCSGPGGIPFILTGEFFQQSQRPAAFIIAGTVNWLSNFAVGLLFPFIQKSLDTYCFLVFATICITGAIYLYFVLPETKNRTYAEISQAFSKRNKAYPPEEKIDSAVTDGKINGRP
Sequence of UniProt Q5SQN1 (Q5SQN1 whole entry): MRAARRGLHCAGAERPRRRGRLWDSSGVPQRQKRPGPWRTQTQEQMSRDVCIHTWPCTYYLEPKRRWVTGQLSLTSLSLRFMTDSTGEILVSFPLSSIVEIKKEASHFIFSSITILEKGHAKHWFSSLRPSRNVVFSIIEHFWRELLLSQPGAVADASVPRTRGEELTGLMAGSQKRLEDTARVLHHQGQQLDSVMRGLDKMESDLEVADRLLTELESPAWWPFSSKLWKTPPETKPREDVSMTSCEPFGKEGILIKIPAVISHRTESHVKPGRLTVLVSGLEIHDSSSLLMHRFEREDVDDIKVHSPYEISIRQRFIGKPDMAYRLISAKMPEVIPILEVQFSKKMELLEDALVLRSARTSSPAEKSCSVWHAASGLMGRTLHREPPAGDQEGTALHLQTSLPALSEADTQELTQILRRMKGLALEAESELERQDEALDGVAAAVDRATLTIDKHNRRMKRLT
Sequence of UniProt Q8NBX0 (Q8NBX0 whole entry, looked up): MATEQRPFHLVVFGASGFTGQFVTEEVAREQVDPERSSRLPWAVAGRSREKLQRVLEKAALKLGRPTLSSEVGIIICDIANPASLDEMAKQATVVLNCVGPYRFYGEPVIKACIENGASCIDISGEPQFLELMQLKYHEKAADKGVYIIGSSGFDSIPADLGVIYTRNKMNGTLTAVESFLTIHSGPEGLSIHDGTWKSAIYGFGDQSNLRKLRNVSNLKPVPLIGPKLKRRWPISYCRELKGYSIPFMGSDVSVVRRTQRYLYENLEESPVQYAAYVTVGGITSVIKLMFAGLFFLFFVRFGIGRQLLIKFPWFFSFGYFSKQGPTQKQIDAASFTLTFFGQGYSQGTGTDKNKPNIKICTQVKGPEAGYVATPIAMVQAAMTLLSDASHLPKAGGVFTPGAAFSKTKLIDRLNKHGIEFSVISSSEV
Sequence of UniProt Q9UPW6 (Q9UPW6 whole entry, looked up): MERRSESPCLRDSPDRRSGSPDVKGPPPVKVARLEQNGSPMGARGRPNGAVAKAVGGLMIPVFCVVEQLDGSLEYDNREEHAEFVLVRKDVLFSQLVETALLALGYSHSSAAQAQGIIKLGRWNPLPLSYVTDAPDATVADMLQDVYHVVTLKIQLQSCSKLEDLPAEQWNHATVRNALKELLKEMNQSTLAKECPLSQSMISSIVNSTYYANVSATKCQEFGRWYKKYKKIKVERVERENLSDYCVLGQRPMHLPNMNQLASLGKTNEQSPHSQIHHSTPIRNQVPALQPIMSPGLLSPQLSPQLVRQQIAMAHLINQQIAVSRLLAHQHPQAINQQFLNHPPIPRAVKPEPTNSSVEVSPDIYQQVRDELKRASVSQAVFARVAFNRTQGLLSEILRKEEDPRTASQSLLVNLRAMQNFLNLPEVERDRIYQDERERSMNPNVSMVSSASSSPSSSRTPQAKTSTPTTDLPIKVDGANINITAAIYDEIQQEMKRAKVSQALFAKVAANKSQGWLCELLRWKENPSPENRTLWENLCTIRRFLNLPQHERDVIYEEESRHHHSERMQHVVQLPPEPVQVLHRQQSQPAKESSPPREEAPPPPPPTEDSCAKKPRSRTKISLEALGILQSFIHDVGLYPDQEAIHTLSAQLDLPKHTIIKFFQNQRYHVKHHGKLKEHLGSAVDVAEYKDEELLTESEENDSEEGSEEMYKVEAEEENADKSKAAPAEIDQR
Sequence of UniProt Q9NTJ5 (Q9NTJ5 whole entry, looked up): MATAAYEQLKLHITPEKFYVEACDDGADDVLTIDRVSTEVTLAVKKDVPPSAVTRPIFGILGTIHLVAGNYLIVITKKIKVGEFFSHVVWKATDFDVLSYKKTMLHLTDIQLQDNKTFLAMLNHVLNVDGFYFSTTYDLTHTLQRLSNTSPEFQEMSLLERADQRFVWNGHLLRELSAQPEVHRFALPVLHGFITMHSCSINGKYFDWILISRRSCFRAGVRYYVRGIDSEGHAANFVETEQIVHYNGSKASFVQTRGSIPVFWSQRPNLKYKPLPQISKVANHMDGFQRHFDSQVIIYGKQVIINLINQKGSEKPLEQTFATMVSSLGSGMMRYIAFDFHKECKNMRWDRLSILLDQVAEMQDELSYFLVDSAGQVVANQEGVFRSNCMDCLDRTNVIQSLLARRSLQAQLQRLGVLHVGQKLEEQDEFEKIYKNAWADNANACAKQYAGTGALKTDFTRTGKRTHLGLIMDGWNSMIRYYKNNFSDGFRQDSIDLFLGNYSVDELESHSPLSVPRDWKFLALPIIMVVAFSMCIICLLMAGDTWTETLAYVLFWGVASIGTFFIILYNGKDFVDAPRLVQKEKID

Target	probe-labelled cysteine peptide fold change
SACM1L_Q9NTJ5_445_NAWADNANACAK (UniProt Q9NTJ5)	-0.281
RNF213_Q63HN8_2503_EVLCDHMVDGQPLAEDSGLHIIAACNPYR (UniProt Q63HN8)	-0.0995
RTN3_O95197-3_46_SCSSSCAVHDLIFWR (UniProt O95197)	-2.6
RPL24_P83731_36_CESAFLSK (UniProt P83731)	-0.167
RNF213_Q63HN8_614_STDFLPVDCPVR (UniProt Q63HN8)	-0.411
SCCPDH_Q8NBX0_238_RWPISYCR (UniProt Q8NBX0)	-0.319
SLC2A9_Q9NRM0_36_ALLECDHLR (UniProt Q9NRM0)	-0.397
SATB2_Q9UPW6_246_ENLSDYCVLGQR (UniProt Q9UPW6)	0.203
RPL7A_P62424_199_KTCTTVAFTQVNSEDK (UniProt P62424)	-0.0745
SASS6_Q6UVJ0_94_FIDLLQQCTQEHAK (UniProt Q6UVJ0)	0.271
RPL4_P36578_96_SGQGAFGNMCR (UniProt P36578)	-0.227
SNAP23_O00161_112_TTWGDGGENSPCNVVSK (UniProt O00161)	-0.235
SND1_Q7KZF4_826_DIQNTQCLLNVEHLSAGCPHVTLQFADSKGDVGLGLVK (UniProt Q7KZF4)	-0.0753
SEC23A_Q15436_74_AVLNPLCQVDYR<|>SEC23B_Q15437_74_AVLNPLCQVDYR (UniProt Q15437+Q15436)	-0.0552
SF3A3_Q12874_411_LHGLNINYNCEICGNYTYR (UniProt Q12874)	0.0514
SNAP47_Q5SQN1_369_SCSVWHAASGLMGR (UniProt Q5SQN1)	-0.275
SLC15A4_Q8N697_269_ILTYSCCSQK (UniProt Q8N697)	-0.524
SMG8_Q8ND04_611_STGACNCGR (UniProt Q8ND04)	-0.0866
SLC43A1_O75387_384_DCVDAPTQGTVLGDAR (UniProt O75387)	-0.165
SEL1L_Q9UBV2_539_SCHTAVELFK (UniProt Q9UBV2)	0.176
SMARCA2_P51531_1296_LMEEDELPSWIIKDDAEVERLTCEEEEEK (UniProt P51531)	-0.106

Same assay, conditions: 50 µM; THP-1; incubation time: 4 h

Target	probe-labelled cysteine peptide fold change
SMC3_Q9UQE7_972_LEQCNTELK (UniProt Q9UQE7)	0.484
SMARCAD1_Q9H4L7_407_ILHFLQDASIGELTLIPQCSQK (UniProt Q9H4L7)	0.122
SAMHD1_Q9Y3Z3_266_WTHEQGSVMMFEHLINSNGIKPVMEQYGLIPEEDICFIK (UniProt Q9Y3Z3)	0.189
SERPINB9_P50453_259_LTAWTKPDCMK (UniProt P50453)	-0.135
SAC3D1_A6NKF1_290_LLQTLPYLPSCAVQCHVGHAR (UniProt A6NKF1)	-0.0296
RPP40_O75818_235_DLQCPVLQSSELEGTPEVSCR (UniProt O75818)	1.11
SLC44A1_Q8WWI5_98_KYVFFLDPCNLDLINR (UniProt Q8WWI5)	-0.325
SAAL1_Q96ER3_144_NLGQVLLHCLYDSDPPTLLETSR (UniProt Q96ER3)	-0.138
RRP9_O43818_460_NSVCIIPLR (UniProt O43818)	0.0169
SAE1_Q9UBE0_214_VVFCPVK (UniProt Q9UBE0)	-0.106
SLC25A10_Q9UBX3_69_TDGILALYSGLSASLCR (UniProt Q9UBX3)	0.6
SETX_Q7Z333_688_LEDHLLAGSCLK (UniProt Q7Z333)	-1.2
SMS_P52788_256_TCGDVLDNLKGDCYQVLIEDCIPVLKR (UniProt P52788)	-0.461
RNF213_Q63HN8_700+701_TYTWLGALPVLHCCMELAPR (UniProt Q63HN8)	-0.555
SLFN11_Q7Z7L1_150_EAFCFLK (UniProt Q7Z7L1)	-1.25
SACM1L_Q9NTJ5_445_NAWADNANACAK (UniProt Q9NTJ5)	-0.157
RNF213_Q63HN8_2503_EVLCDHMVDGQPLAEDSGLHIIAACNPYR (UniProt Q63HN8)	-0.0384
RTN3_O95197-3_46_SCSSSCAVHDLIFWR (UniProt O95197)	-2.97

Target	probe-labelled cysteine peptide fold change
RPL24_P83731_36_CESAFLSK (UniProt P83731)	-0.187
RNF213_Q63HN8_614_STDFLPVDCPVR (UniProt Q63HN8)	-2.4
SCCPDH_Q8NBX0_238_RWPISYCR (UniProt Q8NBX0)	-1.49
SLC2A9_Q9NRM0_36_ALLECDHLR (UniProt Q9NRM0)	-1.08
SATB2_Q9UPW6_246_ENLSDYCVLGQR (UniProt Q9UPW6)	-0.0129
RPL7A_P62424_199_KTCTTVAFTQVNSEDK (UniProt P62424)	-0.55
SASS6_Q6UVJ0_94_FIDLLQQCTQEHAK (UniProt Q6UVJ0)	-0.00518
RPL4_P36578_96_SGQGAFGNMCR (UniProt P36578)	-0.224
SNAP23_O00161_112_TTWGDGGENSPCNVVSK (UniProt O00161)	-1.08
SND1_Q7KZF4_826_DIQNTQCLLNVEHLSAGCPHVTLQFADSKGDVGLGLVK (UniProt Q7KZF4)	-1.07
SEC23A_Q15436_74_AVLNPLCQVDYR<|>SEC23B_Q15437_74_AVLNPLCQVDYR (UniProt Q15437+Q15436)	0.0546
SF3A3_Q12874_411_LHGLNINYNCEICGNYTYR (UniProt Q12874)	-0.0305
SNAP47_Q5SQN1_369_SCSVWHAASGLMGR (UniProt Q5SQN1)	-0.786
SLC15A4_Q8N697_269_ILTYSCCSQK (UniProt Q8N697)	-1.45
SMG8_Q8ND04_611_STGACNCGR (UniProt Q8ND04)	-0.204
SLC43A1_O75387_384_DCVDAPTQGTVLGDAR (UniProt O75387)	0.0557
SEL1L_Q9UBV2_539_SCHTAVELFK (UniProt Q9UBV2)	0.261
SMARCA2_P51531_1296_LMEEDELPSWIIKDDAEVERLTCEEEEEK (UniProt P51531)	-0.514
